Over roughly 2,300 sequences, “median log2 fold change of GCK-ALFA target abundance (FLAG IP / Myc IP barcode read proportion)” has its median near 0.095; the lowest 2% begin near -0.47. Some of the results follow.
B1: LC3A_28_830 (protein)
chain: SKIEERIAKFKAEAEAAKASQEPATLTITVTSEDTVEEAKKIAEAMKEEAEKLKDVPDIGIVIDTDGKIDPEVLKILTDTADEIEEKYPNVTVIIALPEE
B2: LC3A_28_1012 (protein)
chain: MSLIEATKKEAKAAIEEAKKGEDAFLEVTITEEATEEEVKEVLKIIEETAEEISKIPNVKLYVVIDFDGSQEKLDIITDRMEEIEKKYPNVSVVIAYDEK
B3: LC3A_free_46_2358 (protein)
chain: YKAEIDIDLLHEDKEVLEKAVEEIEKAAREIAEKYGLKVEIEKEFEKLPDGSYYARIRITLEGEDKEKVEEAVNELINEIDKISKKYDVASIISYEIEEK
B4: LC3A_3_1607 (protein)
chain: SEELVERQLERLREAGFSEEVLEAARRALTALAEKGFFEAAETLTEELLEAKDLPEEVLVDTLEEILYKVENEDLDEEEVIELIKEEFRVARLEAEIEEL
B5: LC3A_28_687 (protein)
chain: SALSERLLAQVKKAEEELLAEDGATVTITIEEPLTPEETEALVKALKEMAKKIKDKKNVSIIISLSRAVSQESIDALADAAEEIEKEYPNITVIIALEER
B6: LC3A_28_1088 (protein)
chain: SALEAQLAAALAEARAARAAGEEVVLEITVDGTATEEDIAKLKAALAEIAAIARELPALAVVINLTGPNAQEKATILSTFAEELEAEVPNLTVIIALDED
B7: LC3A_28_1281 (protein)
chain: SEIEEEIERAIKEAKEAKEKGEPAVIEIEVPGDATEEEIEKVIKGLEEIAEILKDIPNQAIVINVDSGVKEEHIDKLVDKAEEIEEKYPNVTVIIALDED
B8: LC3A_3_1392 (protein)
chain: FEEIKKEAEETLKKFGRSEEVIEKTKEVLDALEEKGYLEAAKTLLEELKKMKDLSDEILLDFLEDVLEYVETNDASEEEVVEFIKEEARIAKNEGEIIEL
B9: LC3A_3_1687 (protein)
chain: MEELVEEVLELLREQGLSEETLEAAERLLEALKERGYEEAIRELLEAARRLKDAPSEEWKWMFEDLLHLLETEDLSEEEVVEEIRREARVIESALEIEEL
B10: LC3A_free_8_2504 (protein)
chain: MNQKVRDAAVEGLDELEEELVEKAKELGLSRLDILEIELEVGSVIAEIHSLADASPEEILKATEEGLKEIIELAKELSEELAKLAEEKSKEILERLKALL
B11: LC3A_132_297 (protein)
chain: GEEKAKELKKKIKELVEEAKKNIDDEEKVEELLEKIEELIKKAEKELSPELLAKVMEEAAELLWELSQEFLKAGKEHLAMLADGLAIYAESLALRAKEKI
B12: LC3A_127_182 (protein)
chain: SKLEKAKELMRKIAELFKELEKNKGDKEKELKLLKEAIELAKEAAKLLPEIKDDMEDIIKLAEQIKKMIEEGKEDKEEKEDLLELAESTAELAEARLELE
B13: LC3A_127_192 (protein)
chain: ELEEVLKKLIELARKASELLDDPNADPEEIKKLLEEALKAAKKAVELDPSTQPILEDMEQAKELFEQYLAASPEQQEELREQLQLLLDGIEIEAESKLLK
B14: LC3A_28_750 (protein)
chain: MNIADNVAAAIAEAKAAAAKGEEATITITVPDGATEEDIETAIKGLEEIAEIAKDMPALSIVIDVDSGVSEEHLNKLAEKGEELEEKYPNVTVIIALDEE
B15: LC3A_102_133 (protein)
chain: EVERLLKEALEELERRLEEYFEEHPEYSEEERERALELGRRALEAAAEDAVTLEQHGFSDIYAEDRMLEALEELRRIDPRLAEITREAIERLRKRIAALF
B16: LC3A_45_1928 (protein)
chain: MYKATVDLLVPKELAEETYKLIKEKLAELQKKYGPDLKVDWETLEKSYEETKDEEEVYFEVEITHPDKQTALDAADELEEALQKATGGKVASMISIEEVP
B17: LC3A_3_1660 (protein)
chain: VEELIKETLEWLRKAGKSEEVLEAVREALEALAEKGYEEALRVFAELLRELEDLSDELLLDLALEVKELVETEDISEEEMTERIKELARVTRLEAEIEEL
B18: LC3A_28_968 (protein)
chain: MDIDEELEKALKEAKEAAEKGEPTVITIKVPGTTNEEDTEKIIEALEEIAEILKDIKGAAIIIDIEGKVKQENITKLANKAEEIEKKYPNITVIFALDEE
B19: LC3A_3_1606 (protein)
chain: SEELVERLLERLREAGFSEKVLEAAERALTALAERGFEEAAKTLTEELLKAKDLPEEILVDALEDILHIVETEDLDEEEVIELIKEEFRVAKLESEIEEL
B20: LC3A_free_8_2502 (protein)
chain: NRQKVVDTALKGLDELEEELVKKAKELGLSELDILELELEIGSVISEIISNSDASPEEILKTVREGLEEVIKLAKELSEELAKLAKEKSEEILKKLEELL
B21: LC3A_28_1297 (protein)
chain: SALKEELDKVLKEAEEAAKKGEAAVFTLKVPATADQEDIDYVIETMRKIAEKLKDVKGSAIIIDVEAGVKQEFIDKLADEAEKIEEKYPNVTVIIALEEE
B22: LC3A_28_1245 (protein)
chain: SEVEEQIEKAKAEVEAAVAAGEEALVTLTVTENTTEEEVEKIIEAMEEIAKLAETLPALSIIIDVEKGVKEEHINKLADAAEEIEKKYPNVTVIIALEEE
B23: LC3A_3_1779 (protein)
chain: MEERIEELLKRLREAGKSEETLEAFREAAELLKEKGYEKALETLLEEAEKLIDVPDELFLDFLKEVLDLLKNEDLSEEELTEEIKRLARLTLLESEIEEL
B24: LC3A_28_722 (protein)
chain: MELEENIEKALKEAKEAAEKGEEAVIEIKVPGDATEEDIEKVKETLEEIAEITKDLKRTHIIIDVDGGVKQEHIDKLADKAEEIEKKYPNVTVIIALDEE
B25: LC3A_28_838 (protein)
chain: ASGIKSAEELIAEAEAQAAAGEHVVVEIVVEGEVDEEVTDKVIEALEAVSAHVASLGGGTIVILFHKPVPQEHLKRITDKAEELEEKYPGVNIIIALPED
B26: LC3A_28_1146 (protein)
chain: SAGVEAAKAQIDADAEADKDEPEALLTATITSEATVEDAEAIMDHIEEVVEKLKDKEKIFVIVNFEEPVSQEVLDTVAEKGEEIEKKFPNVSVIIALPED
B27: LC3A_free_46_2335 (protein)
chain: YKVDVTIDLLAAPKEEIEKTVKKIVEGAKEIAEKYGGEIEVEIEFYKNEDGTYIARIDITVTVENKETAEKVAQDLSDMIDEIDEETGLVGMFSIDISEV
B28: LC3A_147_517 (protein)
chain: YLVEVEIDMLLKNSKELAEEIAKEIEERLKEKGYKVEVELEFEEDEDGTIFADITIKVEAETLEEAKEVANEILDIIDELLEKNKDKILGALISVSITKK
B29: LC3A_free_8_2497 (protein)
chain: SRQEIVDRLLELIDELEEELEEKAKELGLSELDILDITLELGSLKAEIISNSDEPLEVIREELEEGLEEIIELTEELSEELEELAEEGAEKILEELEELE

molecular target: MAP1LC3A, Q9H492; experiment: median log2 fold change of GCK-ALFA target abundance (FLAG IP / Myc IP barcode read proportion) (log2 ratio); each designed protein is fused to an ALFA-tag nanobody in HEK293 cells to bring the named protein to FLAG-tagged glucokinase (GCK); Myc marks an untargeted standard; higher = target protein stabilised (more abundant); details: target protein: 3xFLAG-MCP-GCK-ALFA reporter; HEK293 landing pad (RPLP)
In short: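 An ALFA-nanobody-fused binder library was recombined into HEK293 landing-pad cells and induced with 2 μg mL^−1 doxycycline. Cells were transfected with a plasmid expressing a FLAG-tagged target and a Myc-tagged standard. After 48 h, lysates underwent anti-FLAG and anti-Myc immunoprecipitation, and circular RNA barcodes were reverse transcribed, amplified and sequenced. Target abundance is the per-binder median log2 ratio of FLAG to Myc barcode read proportions. Barcodes needed ≥10^−7 proportion in both replicates, binders ≥3 barcodes per replicate, and a 10^−6 pseudocount was added; the two replicates were pooled.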

Binder | median log2 fold change
B1 | 0.132
B2 | -0.527
B3 | -0.026
B4 | 0.146
B5 | 0.252
B6 | -0.0649
B7 | -0.286
B8 | 0.0991
B9 | 0.164
B10 | -0.195
B11 | 0.131
B12 | 0.197
B13 | 0.194
B14 | 0.03
B15 | -0.111
B16 | 0.089
B17 | 0.138
B18 | -0.284
B19 | 0.167
B20 | -0.151
B21 | 0.272
B22 | 0.125
B23 | 0.192
B24 | 0.0242
B25 | 0.13
B26 | -0.0827
B27 | 0.0788
B28 | -0.778
B29 | -0.679

From the supplement of paper PMC12632987
